These are yes or no findings as the source states them, for the method shown. For part of these data: Binding seen in cells or lysates may run through a third protein. Some binding calls cover weakened binding; strength is not graded here. One block for each molecule: values may come before it.
Experiments:
[1] = molecular target: T1, Ctf4-TAP (budding yeast) (UniProt Q01454); assay: co-IP; Ctf4-TAP isolated on magnetic beads coupled to IgG from extracts of S phase cells expressing GAL-DNA2-9MYC; immunoblotting
T1 sequence: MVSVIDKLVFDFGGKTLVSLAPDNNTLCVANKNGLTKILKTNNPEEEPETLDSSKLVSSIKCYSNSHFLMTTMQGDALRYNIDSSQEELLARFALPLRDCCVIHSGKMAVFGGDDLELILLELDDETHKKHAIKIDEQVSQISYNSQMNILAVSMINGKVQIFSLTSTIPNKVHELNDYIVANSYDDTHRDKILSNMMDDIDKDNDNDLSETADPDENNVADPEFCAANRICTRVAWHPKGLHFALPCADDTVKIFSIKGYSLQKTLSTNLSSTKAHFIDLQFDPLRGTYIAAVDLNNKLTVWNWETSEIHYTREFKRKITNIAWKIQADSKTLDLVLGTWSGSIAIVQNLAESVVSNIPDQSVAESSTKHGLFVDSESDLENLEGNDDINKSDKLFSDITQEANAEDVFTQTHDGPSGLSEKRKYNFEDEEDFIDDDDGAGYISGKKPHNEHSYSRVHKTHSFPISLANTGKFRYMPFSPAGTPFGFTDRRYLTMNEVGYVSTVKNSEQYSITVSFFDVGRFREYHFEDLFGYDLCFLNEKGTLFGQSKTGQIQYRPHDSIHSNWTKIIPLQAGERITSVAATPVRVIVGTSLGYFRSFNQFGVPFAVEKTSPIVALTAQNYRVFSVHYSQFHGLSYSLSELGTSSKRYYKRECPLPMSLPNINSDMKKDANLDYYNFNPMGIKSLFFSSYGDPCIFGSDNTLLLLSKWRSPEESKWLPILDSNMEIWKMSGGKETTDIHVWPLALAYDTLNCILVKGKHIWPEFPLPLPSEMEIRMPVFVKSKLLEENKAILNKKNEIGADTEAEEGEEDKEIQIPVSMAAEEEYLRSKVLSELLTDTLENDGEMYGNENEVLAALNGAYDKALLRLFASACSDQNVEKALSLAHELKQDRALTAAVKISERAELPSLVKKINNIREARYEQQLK

Amino acid sequences for entries named in this document (tags omitted).
UniProt P38859: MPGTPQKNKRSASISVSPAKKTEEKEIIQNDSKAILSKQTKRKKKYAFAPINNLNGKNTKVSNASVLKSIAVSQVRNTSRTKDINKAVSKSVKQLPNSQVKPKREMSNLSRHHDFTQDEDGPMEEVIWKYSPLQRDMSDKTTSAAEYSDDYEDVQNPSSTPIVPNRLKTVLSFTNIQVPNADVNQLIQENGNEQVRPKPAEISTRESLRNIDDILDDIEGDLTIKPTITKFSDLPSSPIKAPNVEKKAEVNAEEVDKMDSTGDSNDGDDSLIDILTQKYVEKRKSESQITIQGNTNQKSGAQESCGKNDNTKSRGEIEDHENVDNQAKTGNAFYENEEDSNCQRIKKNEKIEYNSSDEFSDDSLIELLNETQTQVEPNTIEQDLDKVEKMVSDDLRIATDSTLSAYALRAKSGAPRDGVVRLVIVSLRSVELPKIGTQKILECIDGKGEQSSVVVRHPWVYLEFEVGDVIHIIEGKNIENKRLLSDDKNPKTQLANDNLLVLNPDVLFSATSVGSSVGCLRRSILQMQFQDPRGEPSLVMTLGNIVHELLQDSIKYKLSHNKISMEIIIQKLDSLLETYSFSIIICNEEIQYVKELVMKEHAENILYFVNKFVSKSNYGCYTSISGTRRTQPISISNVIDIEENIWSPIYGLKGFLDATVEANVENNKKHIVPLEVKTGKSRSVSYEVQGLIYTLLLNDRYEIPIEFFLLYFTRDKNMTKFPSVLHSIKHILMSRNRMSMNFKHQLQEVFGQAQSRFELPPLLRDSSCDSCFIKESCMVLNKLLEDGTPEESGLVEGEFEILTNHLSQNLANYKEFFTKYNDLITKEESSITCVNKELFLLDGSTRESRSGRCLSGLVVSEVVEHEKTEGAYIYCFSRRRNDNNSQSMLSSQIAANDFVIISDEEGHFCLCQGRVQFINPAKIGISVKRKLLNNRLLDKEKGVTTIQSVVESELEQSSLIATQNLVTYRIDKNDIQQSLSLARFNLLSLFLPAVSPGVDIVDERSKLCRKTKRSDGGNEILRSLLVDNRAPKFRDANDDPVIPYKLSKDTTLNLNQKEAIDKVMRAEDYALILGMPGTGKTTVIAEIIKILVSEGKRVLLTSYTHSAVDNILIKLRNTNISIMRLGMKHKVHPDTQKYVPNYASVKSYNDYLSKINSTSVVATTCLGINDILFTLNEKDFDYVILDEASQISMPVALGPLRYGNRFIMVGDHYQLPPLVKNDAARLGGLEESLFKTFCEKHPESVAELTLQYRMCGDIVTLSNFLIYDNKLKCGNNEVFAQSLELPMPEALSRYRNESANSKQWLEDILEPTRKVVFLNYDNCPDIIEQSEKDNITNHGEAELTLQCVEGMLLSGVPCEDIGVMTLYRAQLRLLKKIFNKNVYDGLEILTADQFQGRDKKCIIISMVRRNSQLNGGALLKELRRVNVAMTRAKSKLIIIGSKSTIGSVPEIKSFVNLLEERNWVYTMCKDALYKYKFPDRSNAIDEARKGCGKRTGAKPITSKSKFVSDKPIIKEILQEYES

[2] = molecular target: T1, Ctf4-TAP (budding yeast); assay: co-IP; Ctf4-TAP isolated on magnetic beads coupled to IgG from extracts of G1-phase cells expressing GAL-DNA2-9MYC; immunoblotting
[3] = molecular target: T2, Ctf4-3E (two-hybrid) (budding yeast) (UniProt Q01454); assay: two-hybrid; directed yeast two-hybrid assay, fusions to the activation and DNA-binding domains of Gal4
T2 sequence: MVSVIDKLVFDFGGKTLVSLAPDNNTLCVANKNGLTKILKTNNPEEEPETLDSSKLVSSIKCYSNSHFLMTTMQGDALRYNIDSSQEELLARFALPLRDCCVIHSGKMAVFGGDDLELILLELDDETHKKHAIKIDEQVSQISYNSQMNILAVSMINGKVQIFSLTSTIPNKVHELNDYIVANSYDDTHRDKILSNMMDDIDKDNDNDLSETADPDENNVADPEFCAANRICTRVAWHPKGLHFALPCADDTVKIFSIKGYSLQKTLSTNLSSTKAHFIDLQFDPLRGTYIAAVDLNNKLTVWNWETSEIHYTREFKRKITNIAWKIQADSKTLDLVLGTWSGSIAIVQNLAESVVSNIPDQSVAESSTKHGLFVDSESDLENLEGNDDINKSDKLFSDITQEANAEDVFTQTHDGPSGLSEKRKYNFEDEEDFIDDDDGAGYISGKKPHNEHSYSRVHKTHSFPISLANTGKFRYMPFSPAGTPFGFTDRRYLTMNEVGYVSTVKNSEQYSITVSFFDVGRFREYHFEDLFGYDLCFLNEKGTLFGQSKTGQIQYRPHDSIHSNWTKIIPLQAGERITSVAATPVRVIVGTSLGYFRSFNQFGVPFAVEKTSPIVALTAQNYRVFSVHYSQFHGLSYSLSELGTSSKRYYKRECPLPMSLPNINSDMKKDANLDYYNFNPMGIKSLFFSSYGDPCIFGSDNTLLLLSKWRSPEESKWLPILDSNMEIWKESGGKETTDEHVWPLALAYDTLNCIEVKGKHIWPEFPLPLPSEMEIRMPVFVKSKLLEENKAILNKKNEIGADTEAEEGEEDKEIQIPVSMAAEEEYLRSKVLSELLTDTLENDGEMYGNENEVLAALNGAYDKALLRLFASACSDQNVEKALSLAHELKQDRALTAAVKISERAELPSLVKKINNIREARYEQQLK

[4] = molecular target: T3, Ctf4-4E (two-hybrid) (budding yeast) (UniProt Q01454); assay: as above
T3 sequence: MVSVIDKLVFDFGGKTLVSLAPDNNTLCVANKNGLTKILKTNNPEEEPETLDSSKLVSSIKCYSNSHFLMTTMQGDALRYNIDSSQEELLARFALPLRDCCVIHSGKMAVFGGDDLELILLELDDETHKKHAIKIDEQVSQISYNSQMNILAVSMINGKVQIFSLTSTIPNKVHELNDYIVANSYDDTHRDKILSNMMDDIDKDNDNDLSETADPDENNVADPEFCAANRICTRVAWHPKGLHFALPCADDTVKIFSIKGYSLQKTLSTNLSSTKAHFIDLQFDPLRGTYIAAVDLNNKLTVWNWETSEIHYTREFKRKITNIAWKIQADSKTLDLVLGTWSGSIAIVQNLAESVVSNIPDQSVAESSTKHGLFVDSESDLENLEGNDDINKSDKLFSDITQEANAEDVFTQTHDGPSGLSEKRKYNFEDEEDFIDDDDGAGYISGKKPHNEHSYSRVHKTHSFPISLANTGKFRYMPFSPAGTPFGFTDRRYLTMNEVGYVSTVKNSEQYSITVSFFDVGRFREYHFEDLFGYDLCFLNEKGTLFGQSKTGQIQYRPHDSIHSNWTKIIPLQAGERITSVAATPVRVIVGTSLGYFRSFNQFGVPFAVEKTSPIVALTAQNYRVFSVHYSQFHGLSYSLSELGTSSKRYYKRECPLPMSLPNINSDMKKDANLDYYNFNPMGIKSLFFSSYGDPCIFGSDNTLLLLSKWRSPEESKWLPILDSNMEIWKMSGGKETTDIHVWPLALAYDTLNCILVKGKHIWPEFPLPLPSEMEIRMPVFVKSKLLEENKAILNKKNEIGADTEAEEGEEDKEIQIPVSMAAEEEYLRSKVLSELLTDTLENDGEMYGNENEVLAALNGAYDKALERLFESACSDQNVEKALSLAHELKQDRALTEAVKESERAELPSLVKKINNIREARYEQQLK

[5] = molecular target: T4, wild-type Ctf4 (two-hybrid, limits not stated) (budding yeast) (UniProt Q01454); assay: as above
T4 sequence: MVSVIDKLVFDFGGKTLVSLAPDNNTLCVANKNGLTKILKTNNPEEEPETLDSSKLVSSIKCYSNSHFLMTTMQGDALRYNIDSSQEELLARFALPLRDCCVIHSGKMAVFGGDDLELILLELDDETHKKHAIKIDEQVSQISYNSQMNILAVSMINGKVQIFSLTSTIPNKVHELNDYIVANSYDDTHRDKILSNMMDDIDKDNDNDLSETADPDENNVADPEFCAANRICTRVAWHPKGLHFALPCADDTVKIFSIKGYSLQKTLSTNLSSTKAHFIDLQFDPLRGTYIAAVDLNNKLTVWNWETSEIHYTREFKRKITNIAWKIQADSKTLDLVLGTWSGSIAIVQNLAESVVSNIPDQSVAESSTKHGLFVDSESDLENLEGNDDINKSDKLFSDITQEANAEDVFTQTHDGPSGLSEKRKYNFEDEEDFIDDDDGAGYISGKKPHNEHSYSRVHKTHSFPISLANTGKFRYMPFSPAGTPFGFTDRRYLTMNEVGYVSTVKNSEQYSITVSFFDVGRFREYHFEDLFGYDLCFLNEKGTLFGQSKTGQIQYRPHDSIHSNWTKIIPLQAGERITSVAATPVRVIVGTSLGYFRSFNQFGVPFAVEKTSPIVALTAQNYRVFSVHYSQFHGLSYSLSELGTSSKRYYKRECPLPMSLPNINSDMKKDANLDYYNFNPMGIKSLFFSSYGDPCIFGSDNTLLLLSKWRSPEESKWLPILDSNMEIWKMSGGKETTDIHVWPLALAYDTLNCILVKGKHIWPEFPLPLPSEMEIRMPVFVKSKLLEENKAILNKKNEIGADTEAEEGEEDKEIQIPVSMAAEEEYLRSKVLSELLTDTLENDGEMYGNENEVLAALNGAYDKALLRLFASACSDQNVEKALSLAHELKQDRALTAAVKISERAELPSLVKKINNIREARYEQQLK

[6] = molecular target: T5, Tof2 peptide 497–517 (yeast); assay: fluorescence polarisation; fluorescence anisotropy; serial dilutions of Ctf4CTD with 40 nM (Sld5, Tof2) or 50 nM (Dna2) fluorescein-labeled peptide; 20 mM HEPES pH 7.2, 140 mM KCl, 5% glycerol, 25°C; both purified
T5 sequence (peptide, amino-terminal fluorescein label): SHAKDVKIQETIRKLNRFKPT

binding [1]: binds
Molecule: Dna2-9MYC (from UniProt P38859 1-1522)
binding [2]: no binding (condition: extracts of G1-phase cells)

binding [3]: binds
binding [4]: no binding
binding [5]: binds
Molecule: Dna2 (two-hybrid, Figures 5B and 5C, limits not stated) (from UniProt P38859 1-1522)

binding [6]: binds weakly
B1: Ctf4 471–927 (domain or fragment, budding yeast, UniProt Q01454 471-927, looked up)
chain: TGKFRYMPFSPAGTPFGFTDRRYLTMNEVGYVSTVKNSEQYSITVSFFDVGRFREYHFEDLFGYDLCFLNEKGTLFGQSKTGQIQYRPHDSIHSNWTKIIPLQAGERITSVAATPVRVIVGTSLGYFRSFNQFGVPFAVEKTSPIVALTAQNYRVFSVHYSQFHGLSYSLSELGTSSKRYYKRECPLPMSLPNINSDMKKDANLDYYNFNPMGIKSLFFSSYGDPCIFGSDNTLLLLSKWRSPEESKWLPILDSNMEIWKMSGGKETTDIHVWPLALAYDTLNCILVKGKHIWPEFPLPLPSEMEIRMPVFVKSKLLEENKAILNKKNEIGADTEAEEGEEDKEIQIPVSMAAEEEYLRSKVLSELLTDTLENDGEMYGNENEVLAALNGAYDKALLRLFASACSDQNVEKALSLAHELKQDRALTAAVKISERAELPSLVKKINNIREARYEQQLK
notes: also called Ctf4CTD; source: purified Ctf4CTD protein
